Experimental data as given in PubChem BioAssay AID504332 (National Center for Advancing Translational Sciences (NCATS), 2011).
In all, about 350,000 compounds went through this assay and about 31,000 (8.9%) were called active. Inconclusive results, whose numbers are uncertain, are shown with a selection of clear calls. The call rests on the fitted dose curve; in most records, active means well fitted inhibition curve with a large enough effect; inconclusive means small, poorly fitted or top-dose-only effect; inactive means no such curve, though single readings can be large or run the other way. Potencies beside an inconclusive call are fits to weak or partial responses and may not hold up.

The molecules below were run against Histone-lysine N-methyltransferase EHMT2 (Homo sapiens) (UniProt Q96KQ7) (assay: qHTS Assay for Inhibitors of Histone Lysine Methyltransferase G9a). Details: G9a H3K9 monomethylation, AlphaScreen, 2 h; activity, negative = inhibition: at 59 µM (top of the series) unless noted.
Summary of the method: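 Methyltransferase reactions run at room temperature for 2 h (20 nM enzyme, 500 nM biotin-H3K9 peptide, 20 uM SAM) after a 15 min compound preincubation; product detected by AlphaScreen beads and anti-H3K9me1 antibody.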
Further: nearly all actives have a fitted effect of over 75% in size.
On the % scale 0 is the no-effect control and ±100 the full control effect; potency means the concentration at half of the fitted maximal effect; tags describe the fitted curve by direction and shape.

Chain of UniProt Q96KQ7 (Q96KQ7 whole entry, looked up): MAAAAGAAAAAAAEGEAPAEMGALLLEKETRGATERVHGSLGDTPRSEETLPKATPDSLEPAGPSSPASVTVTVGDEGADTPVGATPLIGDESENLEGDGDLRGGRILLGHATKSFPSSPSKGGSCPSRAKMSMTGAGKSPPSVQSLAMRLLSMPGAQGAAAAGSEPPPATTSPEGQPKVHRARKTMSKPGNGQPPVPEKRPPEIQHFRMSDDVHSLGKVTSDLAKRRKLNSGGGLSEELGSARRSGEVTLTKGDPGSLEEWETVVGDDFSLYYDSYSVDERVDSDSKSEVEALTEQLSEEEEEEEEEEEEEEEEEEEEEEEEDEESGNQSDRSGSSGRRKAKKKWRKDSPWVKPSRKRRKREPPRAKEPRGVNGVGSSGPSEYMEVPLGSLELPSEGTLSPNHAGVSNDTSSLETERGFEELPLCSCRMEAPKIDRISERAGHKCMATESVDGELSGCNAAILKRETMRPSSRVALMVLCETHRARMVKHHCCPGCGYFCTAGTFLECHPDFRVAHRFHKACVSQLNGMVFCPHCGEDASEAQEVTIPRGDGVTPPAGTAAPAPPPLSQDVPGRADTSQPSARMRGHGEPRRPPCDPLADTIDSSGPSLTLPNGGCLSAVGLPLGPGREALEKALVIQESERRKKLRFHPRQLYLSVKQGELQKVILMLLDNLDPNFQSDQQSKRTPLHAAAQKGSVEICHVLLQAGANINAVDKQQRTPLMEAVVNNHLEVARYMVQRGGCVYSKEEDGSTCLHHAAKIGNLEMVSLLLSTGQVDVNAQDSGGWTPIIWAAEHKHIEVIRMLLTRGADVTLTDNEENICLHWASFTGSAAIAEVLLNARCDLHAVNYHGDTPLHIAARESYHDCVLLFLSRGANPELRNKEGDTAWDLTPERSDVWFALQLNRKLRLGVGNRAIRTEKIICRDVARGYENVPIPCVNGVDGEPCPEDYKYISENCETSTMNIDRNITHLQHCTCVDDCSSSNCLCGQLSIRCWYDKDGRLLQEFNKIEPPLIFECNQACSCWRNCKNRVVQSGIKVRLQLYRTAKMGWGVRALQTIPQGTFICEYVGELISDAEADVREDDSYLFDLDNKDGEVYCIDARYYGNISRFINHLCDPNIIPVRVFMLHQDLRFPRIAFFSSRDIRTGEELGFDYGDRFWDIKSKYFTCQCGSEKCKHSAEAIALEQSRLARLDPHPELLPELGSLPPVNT

Structure (SMILES)	Potency	activity, negative = inhibition
Cc1ccc(NC(=O)C2(NC(=O)c3ccccn3)CCCCC2)cc1Br	inconclusive: 28.2 µM [inhibitor, single point]	–
CCCCc1nccn1CCn1ccnc1CCCC	inconclusive: 15.8 µM [inhibitor, partial curve, poor fit]	–
CCOC(=O)C1=C(O)C(=O)N(c2ccc(S(N)(=O)=O)cc2)C1c1ccc([N+](=O)[O-])cc1 (stereo not given)	inconclusive: 50.1 µM [inhibitor, partial curve, poor fit]	–
CCn1c(CCCCc2n[nH]c(=S)n2CC)n[nH]c1=S	active: 20 µM	–
O=C(Oc1ccc(Br)cc1C(=S)N1CCCC1)c1ccccc1F	active: 8.91 µM	–
COCCN1C(=O)c2oc3ccccc3c(=O)c2C1c1ccc(O)c(OC)c1 (stereo not given)	inconclusive: 89.1 µM [inhibitor, single point]	–
Cc1cc(Nc2ccc(O)cc2)n2c(nc3ccccc32)c1C#N	inconclusive: 0.891 µM [inhibitor, full curve, poor fit]	–
O=C(c1sccc1-c1ccccc1)N1CCN(S(=O)(=O)c2ccccc2F)CC1	inactive	–
O=[N+]([O-])c1cccc(/C=N\N2CCN(c3ccc(Cl)cc3)CC2)c1	inconclusive: 14.1 µM [inhibitor, partial curve, poor fit]	–
Nn1cnn(Cc2ccccc2)c1=S	–	inconclusive: -107% [inhibitor]
C/C(=N\NC(=S)NC(C)C)c1ccc(C(C)(C)C)cc1	inconclusive: 50.1 µM [inhibitor, partial curve, poor fit]	–
O=C(Cc1c[nH]c2ccccc12)N1CCc2ccccc21	inconclusive: 3.16 µM [inhibitor, single point]	–
CCn1c(CNC(=O)Cc2ccc(OC)cc2)nnc1SCC(=O)NC1CCCCC1	inconclusive: 89.1 µM [inhibitor, partial curve, poor fit]	–
Cc1ccc(-n2ncc3c(=O)[nH]c(SCC(=O)N4CCCc5ccccc54)nc32)cc1	inconclusive: 56.2 µM [inhibitor, partial curve, poor fit]	–
O=[N+]([O-])c1ccc(N2CCN(C(=S)c3cccc([N+](=O)[O-])c3)CC2)cc1	active: 2 µM	–
O=C(O)c1cc([N+](=O)[O-])ccc1N1CCC(Cc2ccccc2)CC1	inconclusive: 50.1 µM [inhibitor, partial curve, poor fit]	–
COc1ccc(C(=O)Nc2ccc(S(=O)(=O)N3CCCC3)cc2)cc1	inconclusive: 44.7 µM [inhibitor, partial curve]	–
COC(=O)c1ccc(COc2ccccc2/C=N/Nc2cccc(C(=O)O)c2)cc1	active: 25.1 µM	–
O=C(COC(=O)c1ccc(S(=O)(=O)NCc2ccco2)cc1)Nc1ccccc1	inconclusive: 44.7 µM [inhibitor, partial curve, poor fit]	–
COc1ccccc1NC(=O)Cn1cnc2c(oc3ccccc32)c1=O	inconclusive: 89.1 µM [inhibitor, partial curve, poor fit]	–
Cn1nnnc1SCCNC/C=C/c1ccccc1	inconclusive: 44.7 µM [inhibitor, partial curve, poor fit]	–
Cc1ccc(NC2CCCN(C(=O)c3cn4cc(Cl)ccc4n3)C2)cc1C (stereo not given)	inconclusive: 0.794 µM [inhibitor, full curve, poor fit]	–
COc1ccc(S(=O)(=O)N(C)C(C)CCc2ccco2)cc1 (stereo not given)	active: 79.4 µM	–
Cn1c(=Nc2ccc(N3CCOCC3)cc2)ccc2ccccc21	inconclusive: 22.4 µM [inhibitor, partial curve, poor fit]	–

Structure (SMILES)	Potency	activity, negative = inhibition
CC(C)(O)C#Cc1ccc(C(=O)N2CCCC(CNS(=O)(=O)c3cccs3)C2)o1 (stereo not given)	active: 28.2 µM	–
COc1cccc(NC(=O)[C@H](NC(=O)[C@@H]2Cc3ccccc3CN2)c2ccccc2)c1	inconclusive: 79.4 µM [inhibitor, single point]	–
CCN(CC)S(=O)(=O)c1ccc(N2CCOCC2)c(NS(=O)(=O)c2ccc(C)c(C)c2)c1	inactive	–
CCOC(=S)SCc1cn2cccc(C)c2n1	active: 31.6 µM	–
Cc1nc(C)c(CCNC(=O)c2ccc(C(F)(F)F)cc2)s1	active: 44.7 µM	–
CC1CCN(C(=S)NC(=O)c2cccc([N+](=O)[O-])c2)CC1	active: 70.8 µM	–
COc1ccc(CCNC(=O)c2cc3c(=O)n(C)c4cc(Cl)ccc4c3s2)cc1OC	inactive	–
COC(=O)C(=O)C/C(=N/Nc1ncnc2ccccc12)c1ccc(Cl)cc1	inactive	–
N#Cc1nc(Cc2cccc3ccccc23)oc1NCC1CCCO1 (stereo not given)	inconclusive: 89.1 µM [inhibitor, single point]	–
Oc1c(C(Nc2cccc(C(F)(F)F)c2)c2cccnc2)ccc2cccnc12 (stereo not given)	active: 8.91 µM	–
Cc1oc(/N=C/c2ccc(F)cc2)c(C#N)c1C	inconclusive: 79.4 µM [inhibitor, single point]	–
CCCn1c(C)cc(C(=O)COC(=O)c2ccc(Cl)c(S(=O)(=O)N3CCCC3)c2)c1C	inconclusive: 79.4 µM [inhibitor, single point]	–
Cc1c(/C(O)=C2\C(=O)C(=O)N(CCN(C)C)C2c2cccnc2)cnn1-c1ccccc1 (stereo not given)	inconclusive: 50.1 µM [inhibitor, partial curve, poor fit]	–
COCc1[nH][nH]c(=O)c1C=Nc1ccc(Cl)cc1	inconclusive: 10 µM [inhibitor, partial curve]	–
O=C1C2CCCCN2C(=O)N1CCCCN1CCN(c2ccc(F)cc2)CC1 (stereo not given)	–	inactive: 23.8% [at 0.501 µM]
CCOC(=O)c1c(C)[nH]c(C)c1C(=O)COC(=O)c1cccc(S(=O)(=O)NC)c1	inconclusive: 50.1 µM [inhibitor, partial curve, poor fit]	–
O=C(Nc1ncccc1O)c1cccc(S(=O)(=O)NCc2ccccc2)c1	inconclusive: 44.7 µM [inhibitor, partial curve]	–
c1ccc(CN=C2NN=C(c3ccccc3)CS2)cc1	active: 39.8 µM	–
Cc1ccc(/C=N/n2c(COc3ccccc3)n[nH]c2=S)cc1	active: 8.91 µM	–
CCN(CC)S(=O)(=O)c1ccc(C(=O)NC2CC(=O)N(c3ccc4c(c3)OCCO4)C2)cc1 (stereo not given)	inactive	–
O=C(CC(C(=O)O)c1ccc(F)cc1)c1ccc(Cl)cc1 (stereo not given)	inactive	–
COc1cccc(CN2CCNC(=O)C2CC(=O)N(C)CC2CCOCC2)c1OC (stereo not given)	inconclusive: 79.4 µM [inhibitor, single point]	–
O=C(c1ccncc1)N1C2C=CC(C2)C1(C(F)(F)F)C(F)(F)F (stereo not given)	inconclusive: 35.5 µM [inhibitor, partial curve, poor fit]	–
Cc1ccc(NC(=S)N(Cc2cccc(Br)c2)CC2CCC(C(=O)O)CC2)cc1 (stereo not given)	inconclusive: 39.8 µM [inhibitor, partial curve, poor fit]	–

Structure (SMILES)	Potency	activity, negative = inhibition
O=C(CN1C(=O)COc2ccc(S(=O)(=O)Nc3ccccc3)cc21)NCc1ccccc1Cl	inconclusive: 6.31 µM [inhibitor, single point]	–
Cc1cc2c(cc1C)CSC(c1c(O)ccc3ccccc13)SC2	inconclusive: 22.4 µM [inhibitor, single point]	–
CCN(CC)CCNC(C(=O)Nc1cc(C(F)(F)F)ccc1Cl)c1ccccc1 (stereo not given)	active: 10 µM	–
CN(C)c1ccc(/C=N/NC(=O)C(O)c2ccc(Br)cc2)cc1 (stereo not given)	inactive	–
CC(C)CN(C(=O)c1ccc(Br)o1)C1CCS(=O)(=O)C1 (stereo not given)	inconclusive: 89.1 µM [inhibitor, partial curve, poor fit]	–
O=C(NNC(=S)NC(=O)c1ccccc1)c1cccnc1	active: 22.4 µM	–
Fc1ccc(Cn2nnc(-c3ccc(Cl)cc3)n2)cc1	inactive	–
CCOc1ccc2[nH]c(=S)[nH]c2c1	inconclusive: 0.708 µM [inhibitor, full curve, poor fit]	–
O=C(NCCCN1CCOCC1)c1ccc(-n2nc(C(F)(F)F)cc2-c2cccs2)cc1	–	inactive: -20.8% [at 12.7 µM]
CCNC(=S)NNC(=O)C(c1ccccc1)c1ccccc1	inactive	–
Cc1cccc(N(CC(=O)NC2CCCC2)C(=O)CS(=O)CC(=O)Nc2ccc3c(c2)OCO3)c1 (stereo not given)	inconclusive: 89.1 µM [inhibitor, single point]	–
O=C(OCc1cccc([N+](=O)[O-])c1)c1ccc2ccccc2n1	inactive	–
Cc1ccc(-n2c(O)c(/C=N/NC(=O)C3COc4ccccc4O3)c3ccccc3c2=O)cc1 (stereo not given)	inactive	–
COc1cc(Cl)c(NS(=O)(=O)c2ccc3[nH]c(=O)ccc3c2)c(OC)c1	inactive	–
CCc1nnc(NC(=O)c2ccc(Br)c(S(=O)(=O)N3CCOCC3)c2)s1	inactive	–
CCC1CCCCN1C(=O)Cn1c(=O)n(-c2ccccc2C(F)(F)F)c(=O)c2c(C)c(C(=O)N(C)C)sc21 (stereo not given)	inactive	–
CC1(C)Cc2c(sc(NC(=O)COc3cccc4ccccc34)c2C#N)C(C)(C)N1	inconclusive: 44.7 µM [inhibitor, partial curve]	–
COc1cc(C2C(C(=O)c3cccs3)=C(O)C(=O)N2c2cc(C)on2)ccc1O (stereo not given)	active: 50.1 µM	–
COc1ccc(C2CC(c3cccs3)=NN2C(=O)CSc2nc(=O)n3ccc(C)cc3n2)cc1 (stereo not given)	inactive	–
CC(C)(C)CC(=O)Nc1ccccc1N1CCN(c2ccc(F)cc2)CC1	inconclusive: 89.1 µM [inhibitor, single point]	–
Cc1cc2c(c(=O)n1Cc1ccccc1)C1O[C@](c3ccsc3)(Cc3cc(C#N)ccc31)O2	–	inactive: 17.4% [at 2.33 µM]
C=CCNc1nc(N2CCOCC2)c(C#N)c2c1CN(C)CC2	inactive	–
